Laboratory results as given in PubChem BioAssay AID1030 (National Center for Advancing Translational Sciences (NCATS), 2008).
Values joined by “and” are separate entries in the source; they are usually repeats but may differ in a detail not shown here. Equal entries are not always repeated. About 16,000 (7.3%) of roughly 220,000 compounds were called active. The inconclusive results got no clear call from the source; some entries with a clear call stand among them for comparison. Calls follow the shape of the dose curve; as a rule, active = well fitted inhibition curve with a large enough effect (not every such curve was filed as active); inconclusive = small, poorly fitted or top-dose-only effect, or another doubt; inactive = no such curve, though single readings can be large or run the other way. Potencies of inconclusive entries are left out as doubtful fits.

Each compound was assayed against Aldehyde dehydrogenase 1A1 (Homo sapiens) (UniProt P00352) (assay: qHTS Assay for Inhibitors of Aldehyde Dehydrogenase 1 (ALDH1A1)). Details: Purified ALDH1A1, NADH fluorescence, propionaldehyde substrate; series mostly up to 75.3 µM.
UniProt P00352, sequence (P00352 whole entry, looked up): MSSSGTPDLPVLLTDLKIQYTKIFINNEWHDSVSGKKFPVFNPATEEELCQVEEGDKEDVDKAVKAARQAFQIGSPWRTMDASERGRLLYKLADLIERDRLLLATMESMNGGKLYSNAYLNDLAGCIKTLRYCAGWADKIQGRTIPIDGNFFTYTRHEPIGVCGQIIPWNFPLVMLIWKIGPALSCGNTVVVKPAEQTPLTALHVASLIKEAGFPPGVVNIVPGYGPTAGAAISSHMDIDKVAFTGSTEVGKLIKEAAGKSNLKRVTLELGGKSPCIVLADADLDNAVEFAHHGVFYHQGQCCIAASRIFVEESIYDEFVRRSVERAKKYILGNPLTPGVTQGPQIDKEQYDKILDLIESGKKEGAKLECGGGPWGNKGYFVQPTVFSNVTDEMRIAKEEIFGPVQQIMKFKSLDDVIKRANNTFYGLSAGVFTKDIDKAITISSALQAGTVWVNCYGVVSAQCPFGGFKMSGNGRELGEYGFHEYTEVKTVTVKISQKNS

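For activity, negative = inhibition in this document: plate controls were no enzyme wells and a reference inhibitor.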
Potency is read from the fitted curve at half-maximal effect; tags tell the direction and shape of the fitted curve.

Row | SMILES | Potency | activity, negative = inhibition
1 | CSc1ccc(S(=O)(=O)NCCCOC(C)C)cc1 | inconclusive [inhibitor, single point] | –
2 | CCOc1ccc(CN(Cc2ccco2)C(c2cccs2)c2nnnn2C(C)(C)C)cc1 (centres undefined) | inactive | –
3 | CC1(C)C(=O)C=C[C@]2(C)C1CC(=O)[C@]1(C)C2CC[C@@]2(C)C(c3ccoc3)OC(=O)C3O[C@@]321 (some centres undefined) | inactive | –
4 | Cc1cc(C)n2c(SCC(=O)Nc3ccc(F)cc3F)nnc2n1 | inconclusive [inhibitor, single point] | –
5 | COc1ccc(C(=O)COC(=O)C2CCC(=O)N2)cc1 (centres undefined) | inactive | –
6 | CCOc1ccc(C(C)=O)cc1COC(=O)C1=COCCO1 | active: 14.1 µM | –
7 | NNC(=O)c1ccc2ccccc2n1 | active: 7.94 µM | –
8 | COC(=O)c1c(NC(=O)CN2C(=O)NC3(CCc4ccccc4C3)C2=O)sc2c1CCCCC2 (centres undefined) | inconclusive [inhibitor, single point] | –
9 | COc1ccc(-c2nc(C#N)c(NCCc3ccccc3)o2)cc1 | inconclusive [inhibitor, partial curve] | –
10 | O=C(c1ccccc1)N1CCN(S(=O)(=O)c2cccc(NS(=O)(=O)c3ccccc3)c2)CC1 | inconclusive [inhibitor, single point] | –
11 | N#C/C(=C/c1ccc(N2CCOCC2)o1)c1nc2ccccc2[nH]1 | inactive | –
12 | N#CCSc1nc2c(cc1C#N)CCCCCC2 | inconclusive [inhibitor, single point] | –
13 | Cc1ccc(NC(=O)COC(=O)c2ccc3c(c2)NC(=O)C2CCCN32)cc1C (centres undefined) | inconclusive [inhibitor, single point] | –
14 | Clc1ccc(SCCn2cncn2)cc1 | inactive | –
15 | C/C(=N\O)c1ccc2c3ccccc3n(C)c2c1 | inconclusive [inhibitor, partial curve] | –
16 | O=C1Nc2ccccc2S/C1=C/Nc1cccc(Cl)c1 | inactive | –
17 | COc1ccc(/C=C/C(=O)C2CC2)cc1COc1c(C)cccc1C | inconclusive [inhibitor, partial curve, poor fit] | –
18 | Cc1cc(OCC(O)CNC(C)(C)C)ccc1Cl (centres undefined) | inactive | –
19 | COCCN1CCC(CNCc2cn(-c3cc(C)ccc3C)nc2-c2ccccc2)C1 (centres undefined) | inactive | –
20 | Cc1nc(-c2ccc(O)c(O)c2)cs1 | inconclusive [inhibitor, single point] | –
21 | O=C(NCc1ccncc1)C(=O)NC1CC1 | inactive | –
22 | O=C(CSc1ncn[nH]1)Nc1ccc(Br)cc1F | inactive | –
23 | COc1ccc(C(=O)O)c(O)c1OC | inactive | –
24 | O=C(Oc1ccccc1)Oc1ccc2c(c1)oc(=O)c1ccccc12 | active: 17.8 µM | –
25 | Cc1ccc2[nH]c(=O)c(CN(Cc3cccs3)Cc3nnnn3Cc3ccccc3)cc2c1 | active: 14.1 µM | –
26 | CCC(=O)Nc1nc(C)c(C(=O)N2CCCCC2)s1 | inconclusive [inhibitor, single point] | –
27 | COc1ccc(/C=C(/C(=O)c2cccs2)N2C=CC=CC2=C(C#N)C#N)cc1 | inconclusive [inhibitor, single point] | –

Row | SMILES | Potency | activity, negative = inhibition
28 | O=C(COC(=O)C1CC(=O)N(Cc2ccco2)C1)c1ccc(OC(=O)c2ccccc2)cc1 (centres undefined) | active: 14.1 µM | –
29 | COc1ccc(CC(=O)OCC(=O)Nc2ccc(N3CCOCC3)cc2)cc1 | active: 25.1 µM | –
30 | COc1ccc(NC(=O)c2noc3c2CCC3)cc1 | inconclusive [inhibitor, single point] | –
31 | COCCNC(=O)C(C)OC(=O)c1cc2occc2n1C (centres undefined) | active: 31.6 µM | –
32 | Cc1ccc(NC(=O)CSc2nnc(C3COc4ccccc4O3)o2)c(Cl)c1 (centres undefined) | active: 2.82 µM | –
33 | COc1ccc(CCNC(=O)COC(=O)Cc2cc(OC)c(OC)c(OC)c2)cc1 | inactive | –
34 | CCOc1ccc(C(=O)Nc2cc(S(=O)(=O)Nc3ccccc3Cl)ccc2N2CCOCC2)cc1 | inconclusive [inhibitor, single point] | –
35 | Cc1ccc2cc(CN(Cc3ccc(F)cc3)Cc3nnnn3C3CCCC3)c(=O)[nH]c2c1 | active: 14.1 µM | –
36 | O=C(CC1SC(=Nc2ccc(OC(F)F)cc2)N(CCN2CCOCC2)C1=O)Nc1ccc(F)cc1F (centres undefined) | inconclusive [inhibitor, single point] | –
37 | COc1ccc2[nH]c(=O)c(CN(CC3CCCO3)C(=O)Nc3ccccc3OC)cc2c1 (centres undefined) | inconclusive [inhibitor, partial curve] | –
38 | Cc1ccc(N/N=C2\CS(=O)(=O)N(C)c3ccsc32)cc1 | inactive | –
39 | CCc1cccc(C)c1NC(=S)NCc1ccccc1 | inconclusive [inhibitor, partial curve] | –
40 | CCN1CCN(Cc2cc(=O)oc3cc4c(cc23)CCC4)CC1 | inconclusive [inhibitor, single point] | –
41 | Cc1ccc(-c2n[nH]c(=S)n2/N=C/c2ccc(C)o2)cc1 | inconclusive [inhibitor, single point] | –
42 | COc1cccc(C2CCCCN2Cc2nc(-c3ccc(C)o3)oc2C)c1 (centres undefined) | inconclusive [inhibitor, full curve] | –
43 | CCOC(=O)C(CC)/C(C)=N\NC(=O)c1cccc(C)c1 (centres undefined) | inconclusive [inhibitor, single point] | –
44 | O=C(NCC1CCCO1)c1cc2c(=O)[nH]c3ccccc3c2s1 (centres undefined) | inconclusive [inhibitor, single point] | –
45 | O=C(C[n+]1cc(Br)cc(Br)c1)c1cccc([N+](=O)[O-])c1 | active: 3.98 µM | –
46 | O=C1c2ccccc2CC[C@H]1CNCCc1ccc(O)cc1 | inconclusive [inhibitor, single point] | –
47 | COc1cc(/C=N/NC(N)=S)ccc1OCC(=O)N1CCOCC1 | inactive | –
48 | COc1ccc(NC(=O)C(NC(=O)CNC(C)=O)c2ccc(C)cc2)cc1 (centres undefined) | inconclusive [inhibitor, single point] | –
49 | O=C(/C=C/c1ccc2c(c1)OCO2)c1cccs1 | inconclusive [inhibitor, partial curve] | –
50 | O=C(NC(=S)N1CCOCC1)c1ccc([N+](=O)[O-])cc1 | inactive | –
51 | C=C(Cl)COc1ccc2c(CCCC)cc(=O)oc2c1 | inconclusive [inhibitor, partial curve] | –
52 | Cc1nnc(SCc2cc([N+](=O)[O-])cc3c2OCOC3)[nH]c1=O | inconclusive [inhibitor, partial curve] | –
53 | CSc1nnc(C2CCCN2)n1C (centres undefined) | inactive | –
54 | COC(=O)c1cc(NS(=O)(=O)c2ccc(NC(C)=O)cc2)cc(C(=O)OC)c1 | inactive | –

Row | SMILES | Potency | activity, negative = inhibition
55 | OCCN1CCN(c2nc(-c3ccccc3)c3cc(Cl)ccc3n2)CC1 | inconclusive [inhibitor, single point] | –
56 | CCOC(=O)n1c(=O)n(Cc2cccc(C)c2)c2ccccc21 | inactive | –
57 | COc1ccc(OC2C(O)COC2/C=C/c2ccccc2)cc1 (centres undefined) | – | inactive: 6.44% [at 13.5 µM] and inactive: 4.29% [at 13.5 µM]
58 | COc1ccc(C2/C(=C(\O)c3ccc4c(c3)OCCO4)C(=O)C(=O)N2Cc2ccco2)c(OC)c1 (centres undefined) | inactive | –
59 | Cc1cccc2cc(C#N)c(SCC(=O)NCC3CCCO3)nc12 (centres undefined) | inactive | –
60 | CN(C)CCNC(=O)C(=O)NCC1OCCCN1S(=O)(=O)c1cccs1 (centres undefined) | inactive | –
61 | CCN(CC)c1ccc(-c2nn3c(-c4n[nH]c5c4CCC5)nnc3s2)cc1 | inconclusive [inhibitor, partial curve] | –
62 | Nc1c(C(=O)N2CCCCC2)sc(=S)n1-c1ccccc1 | active: 1.41 µM | –
63 | COc1cc(C2NC(=O)NC(c3ccccc3)=C2C(C)=O)c(Cl)cc1OCC(=O)O (centres undefined) | inactive | –
64 | Cc1noc(C)c1/C=N/Nc1ccccn1 | inactive | –
65 | COc1ccc(-c2nc(-c3ccccc3)c(NC(C)(C)C)o2)cc1 | inactive | –
66 | O=C(CN(c1cccc(C(F)(F)F)c1)S(=O)(=O)c1ccc(Cl)c([N+](=O)[O-])c1)NCc1ccccc1 | inactive | –
67 | Oc1cc2c(cc1O)CN(C(=S)NCCc1ccc(Cl)cc1)CCC2 | active: 15.8 µM and active: 20 µM | –
68 | O=C(Nc1nc2ccccc2s1)C1c2ccccc2Oc2ccccc21 | inactive | –
69 | COc1ccc(C2C(C(=O)Nc3ccccc3OC)=C(C)Nc3ncnn32)cc1 (centres undefined) | active: 14.1 µM | –
70 | CC(C)N(Cc1nc(-c2ccc(Cl)cc2)no1)Cc1nccn1C | inconclusive [inhibitor, partial curve] | –
71 | COCCn1c(=O)cnc2cnc(Oc3ccccc3)nc21 | inconclusive [inhibitor, single point] | –
72 | CN(C)S(=O)(=O)c1ccc(Cl)c(NC(=O)COC(=O)CCSc2ccccc2)c1 | active: 25.1 µM | –
73 | CN(Cc1ccccc1)C(=O)C1CCN(S(=O)(=O)c2cc([N+](=O)[O-])ccc2Cl)CC1 | active: 6.31 µM | –
74 | O=C(c1ccc(-c2ccccc2)cc1)N1CCN(Cc2ccccn2)CC1 | inconclusive [inhibitor, single point] | –
75 | C=CCn1c(O)c(C2=c3ccccc3=NC2=O)s/c1=N/c1nccs1 | inactive | –
76 | Nc1nc(SCC(=O)c2ccc(Oc3ccccc3)cc2)n[nH]1 | active: 14.1 µM | –
77 | CC1(C)Cc2cccc(OCC(=O)Nc3cc(C(F)(F)F)ccc3N3CCOCC3)c2O1 | inconclusive [inhibitor, partial curve] | –
78 | CCCC(=O)N(CC(=O)Nc1sc(C)c(C)c1C(N)=O)Cc1ccccc1 | inconclusive [inhibitor, single point] | –
79 | CCOCCCNC(=O)/C(C#N)=C/c1ccc([N+](=O)[O-])o1 | active: 3.98 µM | –
